# In publication PMC4336329 (PLoS ONE, 2015):
# Among all 310,000 compounds or so, about 2,200 (0.71%) showed an effect of 50% or more. The effect is printed as a negative number. Some of the results follow.
# Biological target: human ether-à-go-go-related gene (hERG) potassium channel (human, UniProt Q12809)
# Assay: primary screen, population patch clamp on CHO cells stably expressing hERG
# Sequence of human ether-à-go-go-related gene (hERG) potassium channel (Q12809 whole entry, looked up): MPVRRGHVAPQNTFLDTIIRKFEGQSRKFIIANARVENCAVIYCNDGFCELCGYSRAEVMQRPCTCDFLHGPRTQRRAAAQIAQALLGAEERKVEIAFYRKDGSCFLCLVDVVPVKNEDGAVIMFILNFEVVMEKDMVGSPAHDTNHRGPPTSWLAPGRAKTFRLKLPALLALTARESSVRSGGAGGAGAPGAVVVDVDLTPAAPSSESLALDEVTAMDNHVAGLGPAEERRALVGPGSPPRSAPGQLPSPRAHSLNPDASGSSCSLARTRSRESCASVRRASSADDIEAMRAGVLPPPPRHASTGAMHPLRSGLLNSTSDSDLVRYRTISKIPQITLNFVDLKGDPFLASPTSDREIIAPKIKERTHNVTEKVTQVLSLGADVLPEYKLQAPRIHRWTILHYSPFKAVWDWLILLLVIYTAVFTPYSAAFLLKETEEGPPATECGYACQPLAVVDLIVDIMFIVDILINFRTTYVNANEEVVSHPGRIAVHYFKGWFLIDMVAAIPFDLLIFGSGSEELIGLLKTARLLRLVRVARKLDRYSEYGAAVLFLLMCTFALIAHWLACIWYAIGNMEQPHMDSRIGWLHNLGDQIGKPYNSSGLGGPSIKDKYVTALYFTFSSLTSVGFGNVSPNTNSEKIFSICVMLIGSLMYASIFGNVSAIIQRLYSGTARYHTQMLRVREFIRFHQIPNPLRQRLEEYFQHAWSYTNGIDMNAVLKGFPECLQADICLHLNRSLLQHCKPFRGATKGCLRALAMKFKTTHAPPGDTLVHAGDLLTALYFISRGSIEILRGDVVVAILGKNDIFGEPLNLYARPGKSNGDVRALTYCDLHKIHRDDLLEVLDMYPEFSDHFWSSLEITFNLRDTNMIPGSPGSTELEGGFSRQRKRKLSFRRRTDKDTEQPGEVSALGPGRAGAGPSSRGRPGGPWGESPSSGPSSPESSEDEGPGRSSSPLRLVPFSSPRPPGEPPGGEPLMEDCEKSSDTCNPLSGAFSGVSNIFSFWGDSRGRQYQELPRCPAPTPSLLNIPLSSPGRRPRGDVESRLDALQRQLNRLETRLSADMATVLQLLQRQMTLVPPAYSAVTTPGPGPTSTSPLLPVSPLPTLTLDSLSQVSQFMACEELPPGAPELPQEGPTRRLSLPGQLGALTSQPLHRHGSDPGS
row,Compound,"hERG current change (%, negative = inhibition) at 1uM [%]"
1,COCCn1c(SCC(=O)NCc2ccccc2)nnc1-c1ccco1,9.33
2,COc1ccccc1NC(=O)C(=O)NCCC1CCCCN1S(=O)(=O)c1ccc(F)cc1 (stereo not drawn),12.8
3,O=C(COC(=O)Cn1cnc2ccccc21)Nc1cccc([N+](=O)[O-])c1,13.4
4,CCOC(=O)C1=C(C)N=c2s/c(=C\c3ccncc3)c(=O)n2C1c1ccc2c(c1)OCO2 (stereo not drawn),10.4
5,CC(=O)Nc1ccc2nc(NC(=O)CN3CCOCC3)sc2c1,22.1
6,CCCc1nn2c(=O)c(C(c3ccc(C)cc3)c3c(O)nc4sc(CCC)nn4c3=O)c(O)nc2s1,10.5
7,Brc1ccc(C2=CC(c3cccs3)n3ncnc3N2)cc1 (stereo not drawn),1.55
8,Cc1ccc(C(=O)N2CCN(CCNC(=O)C(=O)NCc3ccc(Cl)cc3)CC2)cc1,-48.8
9,COc1cc(S(=O)(=O)NCc2cccnc2)ccc1F,-7.26
10,O=C(O)c1ccc(-n2cccc2/C=C2/SC(=O)N(CC(=O)N3CCCC3)C2=O)cc1,14.3
11,COc1ccc(N2C(=O)NC(=O)/C(=C\c3cn(C)c4ccccc34)C2=O)cc1,13.7
12,O=C(NCCCn1ccnc1)/C(=C\c1cccnc1)NC(=O)c1ccco1,2.54
13,CC(NC(=O)c1ccc2c(=O)n3c(nc2c1)CCC3)c1ccc(S(N)(=O)=O)cc1 (stereo not drawn),5.09
14,O=[N+]([O-])c1ccc2nc(SCc3cn4ccccc4n3)[nH]c2c1,-0.991
15,O=C(Nc1ccccc1)C1=C[C@H](c2ccccc2)C[C@H](OCc2ccc(CO)cc2)O1,9.55
16,Cn1cncc1C(=O)c1ccccc1,5.68
17,CCc1ccccc1NC(=O)Cn1nnc(C(=O)NCc2cccc(OC)c2)c1N,-1.35
18,COCc1nnc(NC(=O)c2ccc(NC(C)=O)cc2)s1,11.9
19,O=C1CN(C(=O)COC(=O)c2ccccc2NC(=O)c2ccco2)c2ccccc2N1,5.59
20,COc1ccccc1CN1CC(C(=O)N(C)CCOc2ccccc2)CCC1=O (stereo not drawn),4.75
21,C=CCSc1nc(Oc2ccccc2)c2sccc2n1,5.44
22,CN(/N=C/c1cccs1)c1cc(=O)n(C)c(=O)[nH]1,8.29

row,Compound,"hERG current change (%, negative = inhibition) at 1uM [%]"
1,O=C(NC(=S)Nc1ccccc1N1CCOCC1)c1ccc(-c2cccc(Cl)c2)o1,8.88
2,CC1=CCC(C(=O)O)(C(=O)N/N=C/c2cccnc2)C(c2ccccc2)C1 (stereo not drawn),6.97
3,CC(Sc1nnc(-c2ccccc2F)n1N)C(=O)NCC1CCCO1 (stereo not drawn),9.3
4,COc1cccc(NC(=O)Nc2nnc(Cc3ccccc3)s2)c1,15.7
5,Cc1cccc(C(=O)NCC2CCCO2)c1 (stereo not drawn),15.4
6,CC(C)CNC(=S)NC1CC2CCCC(C1)N2Cc1ccco1 (stereo not drawn),-9.18
7,CCOC(=O)c1c(-c2ccc(F)cc2)csc1/N=C/N(C)C,4.81
8,O=C(NC1CC1)C1=C[C@@H](c2ccc(C(F)(F)F)cc2)C[C@@H](OCc2ccc(CO)cc2)O1,-10.6
9,CC(C)Oc1ccc(/C=N/NC(=O)c2nnn(-c3nonc3N)c2CN(C)C2CCCCC2)cc1,1.25
10,N#Cc1c(C(F)(F)F)cc(-c2ccc(Cl)cc2)[nH]c1=O,21.8
11,Cn1c(N)c(C(=O)NCc2ccccc2)sc1=S,-0.462
12,CC(C)CC(NC(=O)C1CCCCC1)C(=O)NCc1ccccn1 (stereo not drawn),17.1
13,CC(=O)NC1CC2CCCC(C1)N2CC(=O)Nc1ccccc1 (stereo not drawn),12.7
14,O=C(NCC1COc2ccccc2O1)c1cccc(S(=O)(=O)N2CCOCC2)c1 (stereo not drawn),-10.6
15,CCOc1ccc(CNc2nnnn2C)cc1,15.1
16,O=[N+]([O-])c1ccc(/C=N/NC(=S)Nc2ccc(Cl)cc2Cl)s1,12.2
17,CCOC(=O)C1CCN(Cc2oc(CO)cc(=O)c2O)CC1,3.56
18,CCn1c(-c2csc(-c3ccccc3)n2)n[nH]c1=S,9.82
19,CCOC(=O)N1CCN(C(=O)c2n[nH]c(=O)c3ccccc23)CC1,10.7
20,CCCCCNC(=O)c1cccnc1SCC(=O)Nc1ccccc1OC,-19.8
21,O=C(Nc1ccc(Oc2nnc(-c3ccccc3)c3ccccc23)cc1)c1ccccc1,6
22,Cc1sc2ncnc(NC3CCN(Cc4ccccc4)CC3)c2c1C,-56.9

row,Compound,"hERG current change (%, negative = inhibition) at 1uM [%]"
1,O=C(c1ccc(Cl)c(S(=O)(=O)N2CCCCCC2)c1)N1CCN(c2ccccn2)CC1,-0.772
2,COc1ccc(C2CC(=O)N3CN(c4ccc(C)c(Cl)c4)CSC3=C2C#N)cc1 (stereo not drawn),14.5
3,CCOc1cc(/C=N/N=C2/NC(=O)C(CC(=O)O)S2)ccc1OCc1ccc(Cl)cc1Cl (stereo not drawn),11.4
4,CCOc1ccc(OCC(=O)Nc2ccc(S(N)(=O)=O)cc2)cc1,5.92
5,O=C(CP(=O)(c1ccccc1)c1ccccc1)Nc1nc2ccccc2s1,16.5
6,CSc1cccc(NC(=O)c2ccc(CN3CCc4ccccc4C3)cc2)c1,6.61
7,CCCCCc1cc(=O)oc2c(C(CCN3CCCC3)c3ccc(N(C)C)cc3)c(OC)cc(OC)c12 (stereo not drawn),-11.1
8,Cc1noc(C)c1CSc1nnc(-c2ccncc2)n1-c1cccc(Cl)c1C,-10.3
9,O=C(CNS(=O)(=O)c1cccc(Cl)c1)Nc1ccc(-c2nc3ccccc3s2)cc1,1.7
10,CCOC(=O)C(C)Sc1nc(N)c(NC(=O)c2ccc(OC)c(OC)c2)c(=O)[nH]1 (stereo not drawn),-1.17
11,Cc1cc(=O)oc2c3c4c(cc12)OCCN4CCC3,-0.204
12,COc1ccccc1CN(C(=O)CNC(=O)c1ccco1)C(C(=O)NCC1CCCO1)c1ccc(OC)c(OC)c1 (stereo not drawn),14.6
13,CC(c1ccccc1)c1nnc(N)s1 (stereo not drawn),13.2
14,Cc1cccc(NC(=O)c2cc(Cl)nc3ccccc23)n1,2.99
15,COc1ccc(S(=O)(=O)N2CCN(Cc3cccc(Cl)c3)CC2)cc1,5.88
16,CCCCOC(=O)Nc1ccc2c(C)cc(=O)oc2c1,4.39
17,O=C(NCc1ccc2c(c1)OCO2)c1ccc(COc2cccc(Cl)c2)o1,9.76
18,O=C1c2ccccc2S(=O)(=O)N1Cc1nc2ccccc2s1,2.32
19,Cc1cccc(-n2c(N)c(-c3nc4ccccc4n3C)c3nc4ccccc4nc32)c1,4.83
20,O=C(Nc1ccc(Cl)cc1)c1ccc2c(c1)OCO2,18.8
21,CCNC(=S)NN(c1ccccc1)c1ccccc1,8.24
22,N#Cc1c(-c2ccccc2)nc(-c2cccnc2)[nH]c1=O,17.6

row,Compound,"hERG current change (%, negative = inhibition) at 1uM [%]"
1,C=C(C)Cn1c(=O)c2c(nc3n2CCCN3Cc2ccccc2)n(C)c1=O,2.67
2,CCN(C(=O)COC(=O)c1ccc(Cl)cc1N)C1CCCCC1,-0.094
3,CCc1ccc(-c2cc(C)no2)cc1S(=O)(=O)N1CC(=O)Nc2ccccc21,7.97
4,COc1ccc([N+](=O)[O-])cc1NC(=O)C1CCCNC1=O (stereo not drawn),6.16
5,Cc1ccc(S(=O)(=O)C2C(=O)NC3(C)CC2c2ccccc2O3)cc1 (stereo not drawn),8.54
6,CS(=O)(=O)c1ccc(Cl)c(NC(=O)COC(=O)CNC(=O)c2cccs2)c1,0.477
7,Cc1cccc(CSc2nnc(NC(=O)c3ccco3)s2)c1,1.97
8,COc1cc2c(cc1OC)C(C)N(C(=O)Nc1ccc(F)cc1)CC2 (stereo not drawn),7.11
9,Cc1nc(N2CCN(C(=O)CCC(=O)O)CC2)c2c(C)c(C)sc2n1,-4.32
10,COc1ccc(CN(C)S(=O)(=O)c2ccc3c(c2)OCCO3)cc1,0.474
11,COCc1cc(C)n(CC(=O)Nc2ccccc2C(=O)OC)c(=O)c1C#N,10.1
12,COc1ccc(CNC(=O)CN2C(=O)C(C)N(c3ccc(C)cc3)C2=O)cc1 (stereo not drawn),4.88
13,Cc1ccc(S(=O)(=O)N2CCCCC2)cc1C(=O)Nc1ccc(S(=O)(=O)Nc2ncccn2)cc1,10
14,COc1cc(C(=O)OCC(=O)NC(=O)NCc2ccccc2)ccc1OC(F)F,14.4
15,CN1CCc2c(sc(NC(=O)C3COc4ccccc4O3)c2C(N)=O)C1.Cl (stereo not drawn),-6.24
16,Cc1ccc(N/C=C(\C#N)c2ccc(OCCCF)cc2)cc1,5.99
17,CNC(=O)NC(=O)Cn1nc2n(c1=O)-c1ccccc1SC2,8.89
18,COc1cc(CN2CCN(Cc3ccc(SC)cc3)CC2)cc(OC)c1O.O=C(O)C(=O)O,-20.8
19,C=CCNC(=O)COc1coc(CN2CCN(Cc3ccccc3)CC2)cc1=O,5.17
20,CCOc1cc(CNn2nnnc2N)cc(Cl)c1OCC(=O)NC(C)(C)C,-4.94
21,CCOc1ccc(NC(=S)Nc2ccccc2C2CC2)cc1,12
